{"source": "PubChem BioAssay (Tox21)", "key": {"[1]": {"experiment": "qHTS assay to identify small molecule agonists of the estrogen receptor beta (ER-beta) signaling pathway - cell viability counter screen (AID 1259380); note: nearly all actives have a fitted effect of over 30% in size", "summary_of_the_method": "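HEK293T ER-beta-UAS-bla; 2% CS-FBS; 6 hr pre-plate, 16 hr cpd at 37C/5% CO2; LiveBLAzer read first, then CellTiter-Glo 30 min RT, luminescence.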"}, "[2]": {"experiment": "qHTS assay to identify small molecule antagonists of the estrogen receptor beta (ER-beta) signaling pathway - cell viability counter screen (AID 1259382); note: nearly all actives have a fitted effect of over 55% in size", "summary_of_the_method": "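Cells: ER-beta-UAS-bla HEK293T, 2,000/well, 2% CS-FBS, 6 hr settle. Cpd + E2 (1nM final), 16 hr, 37C/5% CO2. Bla FRET substrate 2 hr RT, then CellTiter-Glo 30 min RT, luminescence.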"}, "[3]": {"experiment": "qHTS assay to identify small molecule antagonists of the progesterone receptor (PR) signaling pathway - cell viability counter screen (AID 1346798); note: nearly all actives have a fitted effect of over 50% in size", "summary_of_the_method": "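Measures cytotoxicity in parallel with the PR antagonist reporter read: HEK293T PR-UAS-bla cells get compound and R5020 for 16 hr, and remaining viable cells are quantified by CellTiter-Glo luminescence.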"}, "[4]": {"experiment": "qHTS assay to identify small molecule agonists of the progesterone receptor (PR) signaling pathway - cell viability counter screen (AID 1346799; calls by dose curve; note: nearly all actives have a fitted effect of over 45% in size)", "summary_of_the_method": "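Using the same plates as the PR reporter screen, HEK293T PR-UAS-bla cells received compounds for 16 hr at 37C and were then lysed with CellTiter-Glo; luminescence was read 30 min later at room temperature.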"}, "[5]": {"experiment": "Caspase-3/7 induction in CHO-K1 cells by small molecules, qHTS cell viability counter screen (AID 1346979); note: nearly all actives have a fitted effect of over 35% in size", "summary_of_the_method": "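Multiplexed with Caspase-Glo 3/7 in CHO-K1 cells, this counter screen added CellTiter-Fluor after 16hr of compound exposure and recorded fluorescence 1hr later.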"}, "[6]": {"biological_target": "Progesterone receptor (Homo sapiens) (UniProt P06401)", "sequence (P06401 whole entry, looked up)": "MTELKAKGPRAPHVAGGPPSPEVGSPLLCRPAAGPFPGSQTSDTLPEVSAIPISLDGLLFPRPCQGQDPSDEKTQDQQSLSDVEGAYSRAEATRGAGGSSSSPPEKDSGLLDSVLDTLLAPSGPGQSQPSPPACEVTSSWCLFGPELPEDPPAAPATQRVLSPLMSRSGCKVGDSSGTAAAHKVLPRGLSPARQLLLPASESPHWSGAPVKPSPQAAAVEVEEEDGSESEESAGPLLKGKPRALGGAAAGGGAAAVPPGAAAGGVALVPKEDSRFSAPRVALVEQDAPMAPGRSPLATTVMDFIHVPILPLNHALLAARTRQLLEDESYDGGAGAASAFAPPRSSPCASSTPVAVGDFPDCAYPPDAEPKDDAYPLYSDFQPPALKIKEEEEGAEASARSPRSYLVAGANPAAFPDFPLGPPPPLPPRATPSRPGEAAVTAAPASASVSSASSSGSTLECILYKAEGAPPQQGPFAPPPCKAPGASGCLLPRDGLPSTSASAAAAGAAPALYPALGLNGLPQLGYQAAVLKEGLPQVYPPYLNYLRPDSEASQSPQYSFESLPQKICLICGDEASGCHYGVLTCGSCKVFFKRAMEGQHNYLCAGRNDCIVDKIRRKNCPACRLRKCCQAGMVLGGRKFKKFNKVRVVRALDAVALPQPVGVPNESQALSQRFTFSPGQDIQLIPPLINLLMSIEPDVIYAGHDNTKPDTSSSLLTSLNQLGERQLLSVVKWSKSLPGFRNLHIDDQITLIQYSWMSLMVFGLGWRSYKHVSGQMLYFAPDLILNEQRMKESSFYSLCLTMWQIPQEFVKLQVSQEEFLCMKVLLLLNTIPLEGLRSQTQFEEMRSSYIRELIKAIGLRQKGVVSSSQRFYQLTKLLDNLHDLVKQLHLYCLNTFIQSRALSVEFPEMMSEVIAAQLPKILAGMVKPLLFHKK", "experiment": "qHTS assay to identify small molecule agonists of the progesterone receptor (PR) signaling pathway (AID 1346784; calls by dose curve; note: nearly all actives have a fitted effect of over 30% in size; for activation: % is set by controls: 0 for no effect and ±100 for the full control effect)", "conditions": "PR-UAS-bla HEK293T, beta-lactamase FRET ratio, 16 h; activation: at 92.4 µM (top of the series) unless noted", "summary_of_the_method": "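Seed PR-UAS-bla HEK 293T cells (2% charcoal-stripped FBS), incubate 6 hr at 37C; add compounds in DMSO, 16 hr at 37C; add LiveBLAzer B/G substrate, 2 hr RT; read fluorescence intensity.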"}, "[7]": {"experiment": "qHTS assay to identify small molecule antagonists of the TGF-beta/Smad signaling pathway - cell viability counter screen (AID 1346824); note: nearly all actives have a fitted effect of over 50% in size", "summary_of_the_method": "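SBE-bla HEK 293T cells were plated overnight at 37 C, then given compounds in DMSO plus TGF-beta1 (added as 0.25 ng/mL solution) for 5 hr. After the bla read, CellTiter-Glo was added to the same wells and luminescence read after 30 min at room temperature.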"}, "[8]": {"experiment": "qHTS assay to identify small molecule agonists of the TGF-beta/Smad signaling pathway (AID 1346859; active = well fitted activation curve with a large enough effect in the signal ratio in the repeat runs, not every such curve was filed as active; inconclusive = weak or mixed curves; the % refers to the signal ratio)", "conditions": "SBE-bla HEK293T, TGF-beta/Smad beta-lactamase reporter, 5 h; activation: at 76.8 µM (top of the series)", "summary_of_the_method": "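Beta-lactamase reporter activity downstream of Smad binding elements was measured in stably transfected HEK 293T cells; compounds were incubated for 5 hr, substrate for 2 hr at room temperature.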"}, "[9]": {"experiment": "qHTS assay to identify small molecule antagonists of the TGF-beta/Smad signaling pathway (AID 1346924; active = well fitted inhibition curve with a large enough effect in the signal ratio in the repeat runs, not every such curve was filed as active; inconclusive = weak or mixed curves; the % refers to the signal ratio)", "conditions": "SBE-bla HEK293T, TGF-beta/Smad reporter, beta-lactamase ratio; activity, negative = inhibition: at 76.8 µM (top of the series) unless noted", "summary_of_the_method": "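SBE-bla HEK 293T cells were plated overnight, then received compound in DMSO plus TGF-beta1 (added as a 0.25 ng/mL solution) and were incubated 5 h at 37 C. Beta-lactamase reporter activity was read after 2 h at room temperature with LiveBLAzer B/G FRET substrate (ex 405, em 460/530 nm).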"}, "[10]": {"experiment": "Human pregnane X receptor (PXR) small molecule agonists, qHTS cell viability counter screen (AID 1346977); note: nearly all actives have a fitted effect of over 50% in size", "summary_of_the_method": "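After a 5hr pre-incubation, PXR-Luc HepG2 cells received compounds plus positive control in DMSO and were kept 24hr at 37C. Cell viability was quantified by fluorescence from CellTiter-Fluor added for the final hour.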"}, "[11]": {"experiment": "Caspase-3/7 induction in HepG2 cells by small molecules, qHTS assay (AID 1346978); note: nearly all actives have a fitted effect of over 15% in size", "summary_of_the_method": "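Wild-type HepG2 cells (2,000/well) were settled 5 h at 37 C, 5% CO2, then exposed to compounds in DMSO for 17 h. Caspase-3/7 activity was read by luminescence 30 min after adding Caspase-Glo 3/7 reagent at room temperature.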"}, "[12]": {"experiment": "qHTS assay to identify small molecule agonists of the estrogen receptor alpha (ER-alpha) signaling pathway in the presence of an antagonist - cell viability counter screen (AID 1259386); note: nearly all actives have a fitted effect of over 30% in size", "summary_of_the_method": "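VM7Luc4E2, stripped-serum pre-culture 5 d; 24hr plating; +ICI-182,780 10.0nM final; cpds 15 conc, 22hr, 37C/5% CO2; CellTiter-Fluor added at 21hr, fluorescence 1hr later.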"}, "[13]": {"biological_target": "Progesterone receptor (Homo sapiens) (UniProt P06401)", "experiment": "qHTS assay to identify small molecule antagonists of the progesterone receptor (PR) signaling pathway (AID 1346795; active = well fitted inhibition curve with a large enough effect in the signal ratio in the repeat runs, not every such curve was filed as active; inconclusive = weak or mixed curves; the % refers to the signal ratio; for activity change, negative = inhibition: % is set by controls: 0 for no effect and ±100 for the full control effect)", "conditions": "PR-UAS-bla HEK293T, beta-lactamase FRET ratio, 16 h; activity change, negative = inhibition: at 92.4 µM (top of the series) unless noted", "summary_of_the_method": "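Screening used a GripTite HEK293T line with PR-responsive UAS-beta-lactamase. Cells were challenged with compound in the presence of 1 nM R5020 final for 16 hr at 37C; B/G FRET substrate, 2 hr room temperature, fluorescence.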"}, "[14]": {"experiment": "Caspase-3/7 induction in CHO-K1 cells by small molecules, qHTS assay (AID 1346980); note: nearly all actives have a fitted effect of over 15% in size", "summary_of_the_method": "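Wild-type cells were seeded at 1,500 per well and settled 5 hr at 37 C, 5% CO2, then exposed to DMSO-dissolved compounds for 17 hr. Caspase-Glo 3/7 reagent was added, and luminescence was read after 30min at room temperature.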"}}, "note": "Values joined by “and” are separate entries in the source; they are usually repeats but may differ in a detail not shown here. Equal entries are not always repeated. Inconclusive means that the source gave no clear call. Such entries were picked first, then a sample of the others. Potencies of inconclusive entries are doubtful fits and often do not repeat. The source holds several records for some structures; these can differ, active in one and inactive in another. Active and inactive are the calls of the source. Unless noted, calls come from the whole dose curve; as a rule, active = well fitted curve in the direction sought with a large enough effect in the repeat runs; inconclusive = weak or mixed curves; inactive = no such curve, though single readings can be large; an effect the other way counts as inactive or inconclusive. Potency is the fitted concentration of half-maximal effect; tags give direction and shape of the fitted curve or compound fluorescence and quenching."}
{"molecule": "CC(C)c1ccc(OP(=O)(Oc2ccc(C(C)C)cc2)Oc2ccc(C(C)C)cc2)cc1", "values": [{"measurement": "Potency", "setting": "[1]", "value": "active: 21.8 µM and active: 27.3 µM and active: 21.7 µM"}, {"measurement": "Potency", "setting": "[2]", "value": "inconclusive: 24.3 µM [cytotoxic, partial curve]"}, {"measurement": "Potency", "setting": "[3]", "value": "inconclusive: 27.5 µM [cytotoxic, partial curve, poor fit] and inconclusive: 68.6 µM [cytotoxic, single point] and active: 30.6 µM"}, {"measurement": "Potency", "setting": "[4]", "value": "inconclusive: 68.6 µM [cytotoxic, single point] and active: 30.6 µM"}, {"measurement": "Potency", "setting": "[5]", "value": "inconclusive: 69.1 µM [cytotoxic, single point] and inconclusive: 48.6 µM [cytotoxic, partial curve]"}]}
{"molecule": "C[C@H]1CCCC(=O)CCC/C=C/c2cc(O)cc(O)c2C(=O)O1", "values": [{"measurement": "Potency", "setting": "[1]", "value": "inconclusive: 58.9 µM [cytotoxic, single point]"}, {"measurement": "Potency", "setting": "[2]", "value": "inconclusive: 66.1 µM [cytotoxic, single point]"}, {"measurement": "Potency", "setting": "[6]", "value": "inconclusive: 58.9 µM [cytotoxic, single point]"}, {"measurement": "activation", "setting": "[6]", "value": "inconclusive: -9.27% [at 42.5 µM]"}, {"measurement": "Potency", "setting": "[7]", "value": "inconclusive: 42.1 µM [cytotoxic]"}, {"measurement": "Potency", "setting": "[8]", "value": "inconclusive: 42.1 µM [rising, single point]"}, {"measurement": "Potency", "setting": "[9]", "value": "inconclusive: 21.1 µM [partial curve]"}, {"measurement": "activity, negative = inhibition", "setting": "[9]", "value": "inconclusive: -0.791% [at 35.3 µM]"}, {"measurement": "Potency", "setting": "[10]", "value": "active: 52.5 µM and inconclusive: 17.8 µM [cytotoxic, partial curve]"}, {"measurement": "Potency", "setting": "[11]", "value": "inconclusive: 58.9 µM [activator, single point]"}]}
{"molecule": "CCCCCCCCCc1ccc(O)cc1", "values": [{"measurement": "Potency", "setting": "[1]", "value": "active: 13.8 µM and active: 43.3 µM"}, {"measurement": "Potency", "setting": "[2]", "value": "inconclusive: 15.5 µM [cytotoxic, full curve] and inconclusive: 30.6 µM [cytotoxic, partial curve]"}, {"measurement": "Potency", "setting": "[12]", "value": "inconclusive: 55 µM [cytotoxic, partial curve, poor fit]"}, {"measurement": "Potency", "setting": "[13]", "value": "active: 27.6 µM and active: 61.1 µM"}, {"measurement": "activity, negative = inhibition", "setting": "[9]", "value": "inconclusive: -16% and inconclusive: -4.32%"}, {"measurement": "Potency", "setting": "[10]", "value": "inconclusive: 70.8 µM [cytotoxic, single point]"}, {"measurement": "Potency", "setting": "[14]", "value": "inconclusive: 55 µM [activator, partial curve] and inconclusive: 54.5 µM [activator, partial curve]"}]}
{"molecule": "ClC1=C(Cl)[C@]2(Cl)[C@@H]3[C@@H](Cl)[C@H]4O[C@H]4[C@@H]3C1(Cl)C2(Cl)Cl", "values": [{"measurement": "Potency", "setting": "[1]", "value": "inconclusive: 77 µM [cytotoxic, single point]"}, {"measurement": "Potency", "setting": "[2]", "value": "inconclusive: 77 µM [cytotoxic, single point]"}, {"measurement": "Potency", "setting": "[13]", "value": "inconclusive: 21.7 µM [falling, partial curve]"}, {"measurement": "Potency", "setting": "[4]", "value": "inconclusive: 27.3 µM [cytotoxic, partial curve, poor fit]"}, {"measurement": "activity, negative = inhibition", "setting": "[9]", "value": "inconclusive: -17.7%"}, {"measurement": "Potency", "setting": "[10]", "value": "inconclusive: 68.6 µM [cytotoxic, single point]"}, {"measurement": "Potency", "setting": "[5]", "value": "inconclusive: 68.6 µM [cytotoxic]"}]}
{"molecule": "C#CCOS(=O)OC1CCCCC1Oc1ccc(C(C)(C)C)cc1", "note": "(configuration not stated)", "values": [{"measurement": "Potency", "setting": "[1]", "value": "inconclusive: 2.43 µM [cytotoxic, full curve, poor fit]"}, {"measurement": "Potency", "setting": "[2]", "value": "inconclusive: 1.93 µM [cytotoxic, partial curve, poor fit]"}, {"measurement": "Potency", "setting": "[13]", "value": "inconclusive: 30.7 µM [falling, partial curve] and inconclusive: 54.5 µM [rising, partial curve]"}, {"measurement": "Potency", "setting": "[7]", "value": "inconclusive: 1.1 µM [cytotoxic, full curve]"}, {"measurement": "Potency", "setting": "[8]", "value": "inconclusive: 15.5 µM [rising, full curve, poor fit]"}, {"measurement": "activity, negative = inhibition", "setting": "[9]", "value": "inconclusive: -11.3% and inconclusive: -20.9%"}, {"measurement": "Potency", "setting": "[5]", "value": "active: 1.94 µM and active: 1.93 µM"}]}
{"molecule": "CCCCOCCOP(=O)(OCCOCCCC)OCCOCCCC", "values": [{"measurement": "Potency", "setting": "[1]", "value": "active: 24.4 µM and inconclusive: 61.1 µM [cytotoxic, partial curve]"}, {"measurement": "Potency", "setting": "[2]", "value": "inconclusive: 61.2 µM [cytotoxic, partial curve, poor fit] and inconclusive: 61.1 µM [cytotoxic, single point]"}, {"measurement": "activity change, negative = inhibition", "setting": "[13]", "value": "inconclusive: -33% and inconclusive: -31.1%"}, {"measurement": "Potency", "setting": "[3]", "value": "inactive"}, {"measurement": "Potency", "setting": "[4]", "value": "inconclusive: 61.1 µM [cytotoxic, partial curve, poor fit]"}, {"measurement": "Potency", "setting": "[5]", "value": "inconclusive: 61.2 µM [cytotoxic, single point] and inconclusive: 68.6 µM [cytotoxic, single point]"}]}
{"molecule": "Clc1ccc(C(c2ccc(Cl)cc2)C(Cl)(Cl)Cl)cc1", "values": [{"measurement": "Potency", "setting": "[1]", "value": "inconclusive: 33.5 µM [cytotoxic, single point]"}, {"measurement": "Potency", "setting": "[2]", "value": "inconclusive: 69.1 µM [cytotoxic, single point] and inconclusive: 77 µM [cytotoxic, single point]"}, {"measurement": "Potency", "setting": "[12]", "value": "inconclusive: 77.5 µM [cytotoxic, single point] and inconclusive: 77 µM [cytotoxic, single point]"}, {"measurement": "Potency", "setting": "[3]", "value": "inconclusive: 69.1 µM [cytotoxic] and inconclusive: 68.6 µM [cytotoxic, single point]"}, {"measurement": "Potency", "setting": "[4]", "value": "inconclusive: 61.6 µM [cytotoxic, single point] and inconclusive: 68.6 µM [cytotoxic, single point] and inconclusive: 33.5 µM [cytotoxic, single point]"}, {"measurement": "Potency", "setting": "[8]", "value": "inconclusive: 54.9 µM [rising, partial curve, poor fit]"}, {"measurement": "activity, negative = inhibition", "setting": "[9]", "value": "inconclusive: -17%"}, {"measurement": "Potency", "setting": "[10]", "value": "inconclusive: 69.1 µM [cytotoxic, single point] and inconclusive: 77 µM [cytotoxic, single point]"}, {"measurement": "Potency", "setting": "[5]", "value": "active: 69.1 µM and inconclusive: 68.6 µM [cytotoxic, single point]"}, {"measurement": "Potency", "setting": "[14]", "value": "inconclusive: 69.1 µM [activator]"}]}
